Measurements reported in ChEMBL document CHEMBL3526104.

Assays:
[1] = substrate: CC(=O)N1CCN([C@H]2CCN(C(=O)N(C)[C@H](C)c3cc(C(F)(F)F)cc(C(F)(F)F)c3)[C@@H](c3ccc(F)cc3C)C2)CC1; test: Drug metabolism in human liver microsomes assessed as CYP3A4-mediated GSK525060 formation after 30 mins by HPLC-MS/MS method; type: ADME
[2] = substrate: CC(=O)N1CCN([C@H]2CCN(C(=O)N(C)[C@H](C)c3cc(C(F)(F)F)cc(C(F)(F)F)c3)[C@@H](c3ccc(F)cc3C)C2)CC1; test: Drug metabolism assessed as human recombinant CYP3A4-mediated GSK525060 formation after 30 mins by HPLC-MS/MS method; type: ADME

B1: Cytochrome P450 3A4 (Homo sapiens) (protein)
chain: MALIPDLAMETWLLLAVSLVLLYLYGTHSHGLFKKLGIPGPTPLPFLGNILSYHKGFCMFDMECHKKYGKVWGFYDGQQPVLAITDPDMIKTVLVKECYSVFTNRRPFGPVGFMKSAISIAEDEEWKRLRSLLSPTFTSGKLKEMVPIIAQYGDVLVRNLRREAETGKPVTLKDVFGAYSMDVITSTSFGVNIDSLNNPQDPFVENTKKLLRFDFLDPFFLSITVFPFLIPILEVLNICVFPREVTNFLRKSVKRMKESRLEDTQKHRVDFLQLMIDSQNSKETESHKALSDLELVAQSIIFIFAGYETTSSVLSFIMYELATHPDVQQKLQEEIDAVLPNKAPPTYDTVLQMEYLDMVVNETLRLFPIAMRLERVCKKDVEINGMFIPKGVVVMIPSYALHRDPKYWTEPEKFLPERFSKKNKDNIDPYIYTPFGSGPRNCIGMRFALMNMKLALIRVLQNFSFKPCKETQIPLKLSLGGLLQPEKPVVLKVESRDGTVSGA
Km [1]: 21.1 µM | Km [2]: 10.1 µM
